Among the test systems are A101D; A2058; A375; 501Mel.
Common to all, as to experiment: cell count relative to DMSO control; melanoma cells; higher = more viable cells
Common to all, as to conditions: library dose: standard library concentration; 72 h

Here are results for 13 compounds from the supplement of paper PMC4604168 (melanoma cell lines).

SMILES strings stand for the structures. Some of the results follow. Many values rest on one well or one pass, so single values are uncertain.
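Note: cells treated in 1,536-well plates, then fixed and DAPI-stained, with nuclei counted from automated high-throughput microscope images.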

Consider `C=CCn1c(=O)c2cnc(Nc3ccc(N4CCN(C)CC4)cc3)nc2n1-c1cccc(C(C)(C)O)n1` + O=C(O)c1ccc(-c2c[nH]c3ncc(-c4ccccc4)cc23)cc1C1CCCC1 [GSK650394] (first compound 0.1 µM, partner dose 0.8 µM), for which the cell count was 59.7% in the assay on A101D, 80.8% with A2058 and 61.8% with A375.
Taken in the same sequence, the figures for `Cc1nc(Nc2ncc(C(=O)Nc3c(C)cccc3Cl)s2)cc(N2CCN(CCO)CC2)n1` [dasatanib] + CC1(C)NC(=O)N(c2ccc([N+](=O)[O-])c(C(F)(F)F)c2)C1=O [nilutamide] (first compound 0.02 µM, partner dose 5 µM) were 69.5%, 71.8% and 70.7%.
As for `NC(=O)Nc1cc(-c2cccc(F)c2)sc1C(=O)N[C@H]1CCCNC1` + Oc1nc(-c2ccc(C(F)(F)F)cc2)nc2c1CSCC2 [XAV939] (first compound 0.1 µM, partner dose 10 µM), the cell count in the assay with 501Mel amounted to 99%; in the assay with A101D it was 70.8%; with A2058, 104%; with A375, 62.6%.
As to `C=CCn1c(=O)c2cnc(Nc3ccc(N4CCN(C)CC4)cc3)nc2n1-c1cccc(C(C)(C)O)n1` + CO[C@@H]1[C@H](N(C)C(=O)c2ccccc2)C[C@H]2O[C@]1(C)n1c3ccccc3c3c4c(c5c6ccccc6n2c5c31)C(=O)NC4 [Midostaurin] (first compound 0.1 µM, partner dose 0.4 µM), the values for the cell count in the assay on A101D, in the assay with A2058 and with A375 were 35.1%, 52.1% and 60.7%, respectively.
For `NCC(=O)Nc1ccc(-n2nc(C(F)(F)F)cc2-c2ccc3c(ccc4ccccc43)c2)cc1` + O=S(=O)(c1ccccc1)N(CC(F)(F)F)c1ccc(C(O)(C(F)(F)F)C(F)(F)F)cc1 [T0901317] (first compound 5 µM, partner dose 7 µM), the cell count was 0.554% in the assay with 501Mel, 34.3% with A101D, 82.9% with A2058 and 28.9% in the assay on A375.
For `NC(=O)Nc1cc(-c2cccc(F)c2)sc1C(=O)N[C@H]1CCCNC1` + COc1ccc(COc2ccc(Cc3cnc(N)nc3N)cc2OC)cc1 [GW2580] (first compound 0.1 µM, partner dose 5 µM), the cell count came to 79.2% with 501Mel, 75.2% in the assay with A101D, 61.2% in the assay on A2058 and 54.1% with A375.
Regarding `OCCn1cc(-c2cnc3nnn(Cc4ccc5ncccc5c4)c3n2)cn1` + CN(NC(=O)CC(=O)NN(C)C(=S)c1ccccc1)C(=S)c1ccccc1 [STA4783] (first compound 5 µM, partner dose 0.03 µM), the cell count in the assay on A101D was found to be 48%; with A2058 it was 9.92%; in the assay on A375, 109%.
On to `C=CCn1c(=O)c2cnc(Nc3ccc(N4CCN(C)CC4)cc3)nc2n1-c1cccc(C(C)(C)O)n1` + COc1cc2c(Oc3ccc4[nH]c(C)cc4c3F)ncnc2cc1OCCCN1CCCC1 [cediranib] (first compound 0.1 µM, partner dose 2 µM), for which the cell count in the assay on A101D is 60.3%; in the assay with A2058, 81.2%; in the assay with A375 it was 56.6%.
Turning to `C=CCn1c(=O)c2cnc(Nc3ccc(N4CCN(C)CC4)cc3)nc2n1-c1cccc(C(C)(C)O)n1` + CC(C)(C)c1cnc(CSc2cnc(NC(=O)C3CCNCC3)s2)o1 [SNS-032] (first compound 0.1 µM, partner dose 0.05 µM), the cell count in the assay on A101D came out at 60.8%; in the assay with A2058 it was 75.9%; with A375, 78%.
Turning to `NC(=O)Nc1cc(-c2cccc(F)c2)sc1C(=O)N[C@H]1CCCNC1` + COc1ccc2c(c1)CCC1C2CCC2(C)C(NCCCCCCN3C(=O)C=CC3=O)CCC12 [U73122] (first compound 0.1 µM, partner dose 2 µM), the cell count in the assay with 501Mel stood at 75.2%; in the assay with A101D, 74.8%; in the assay on A2058 it was 82.6%; in the assay with A375 it was 88.6%.
For `NCC(=O)Nc1ccc(-n2nc(C(F)(F)F)cc2-c2ccc3c(ccc4ccccc43)c2)cc1` + Oc1cc(-c2nc(-c3ccccc3)[nH]c2-c2ccncc2)ccc1Cl [L779450] (first compound 5 µM, partner dose 1 µM), the cell count came out at 18.5% in the assay on 501Mel, 12.5% with A101D, 81.2% with A2058 and 47.9% with A375.
`CO[C@@H]1[C@H](N(C)C(=O)c2ccccc2)C[C@H]2O[C@]1(C)n1c3ccccc3c3c4c(c5c6ccccc6n2c5c31)C(=O)NC4` [Midostaurin] + OCCn1cc(-c2cnc3nnn(Cc4ccc5ncccc5c4)c3n2)cn1 [PF04217903] (first compound 0.4 µM, partner dose 5 µM): the cell count in the assay on A101D was 86.6%; in the assay with A2058, 69.6%; in the assay with A375, 91.4%.
On to `C=CCn1c(=O)c2cnc(Nc3ccc(N4CCN(C)CC4)cc3)nc2n1-c1cccc(C(C)(C)O)n1` + Oc1cc(-c2nc(-c3ccccc3)[nH]c2-c2ccncc2)ccc1Cl [L779450] (first compound 0.1 µM, partner dose 1 µM), for which the cell count in the assay on 501Mel turned out to be 61.4%; in the assay on A101D it was 63.4%; in the assay on A2058 it was 69.9%; in the assay on A375, 49.4%.
